Molecules are shown by their SMILES. Structures can show the parent of a compound that is named as a salt. ± gives the standard deviation of the averaged measurements. Hit rate of the full screen: of about 1,000 compounds, about 15 (2%) showed an effect of 50% or more. Some of the results follow.
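Also: confluent HFF monolayers, run in parallel with the Toxoplasma growth screen as a host toxicity counterscreen.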

The test system of this assay is HFF. The assay is described as follows: uninfected host cell viability relative to vehicle control; higher = less host cell toxicity. Particulars: 5 µM; 72 h; oxygen 21 %.
As to `Nc1ncnc2n[nH]c(Nc3ccc(F)cc3)c12`, the “uninfected host cell viability” value is 80.93 ± 0.35%. Then `c1ccc(CN(CC2=NCCN2)c2ccccc2)cc1` [Antazoline hydrochloride], with 91 ± 1.8%. Then `NC(=O)c1cccc(N)c1` [3-Aminobenzamide], with 87.67 ± 0.84%; and `CN(CC[C@@H](Oc1ccc(-c2ccccc2)cc1)c1ccc(F)cc1)CC(=O)O` [ALX 5407 hydrochloride], with 89.7 ± 7.4%. Regarding `CCN(CC)CCCC(C)Nc1nc(C)cc(Nc2ccc3nc(C)cc(N)c3c2)n1` (stereo unspecified), the “uninfected host cell viability” value stood at 80.4 ± 1.2%. Turning to `CNC(=O)[C@H]1O[C@@H](n2cnc3c(NCc4cccc(I)c4)nc(Cl)nc32)[C@H](O)[C@@H]1O`, the “uninfected host cell viability” value is 82.65 ± 0.48%.

With `O=[N+]([O-])c1cccc2c[nH]nc12`, the “uninfected host cell viability” value is 85.36 ± 0.14%. Then `Clc1cccc2c1CN(C1=NCCN1)C2`, with 91.5 ± 9.4%; and `O=C(/C=C/c1c(C(=O)O)[nH]c2cc(Cl)cc(Cl)c12)Nc1ccccc1` [Gavestinel], with 85.3 ± 1.3%. Consider `Cn1ccc2cc3c(cc21)CCN3C(=O)Nc1cccnc1`, for which the “uninfected host cell viability” value was found to be 78.06 ± 0.67%. Take `COc1ccc(CCN(C)CCCOc2ccc(S(=O)(=O)c3c(C(C)C)c4ccccc4n3C)cc2)cc1OC`: the “uninfected host cell viability” value is 86.8 ± 0.95%. As for `CCCCCCN(CCCCCC)C(=O)Cc1c(-c2ccc(Cl)cc2)[nH]c2ccc(Cl)cc12`, the “uninfected host cell viability” value was determined as 97.7 ± 1.1%. Consider `O=C1C(SCCO)=C(SCCO)C(=O)c2ccccc21`, for which the “uninfected host cell viability” value was found to be 70 ± 0.99%.

Regarding `CCOC(=O)[C@H](CCc1ccccc1)N[C@@H](C)C(=O)N1Cc2cc(OC)c(OC)cc2C[C@H]1C(=O)O` [Moexipril hydrochloride], the “uninfected host cell viability” value is 97.91 ± 0.78%. Take `FC(F)(F)c1cccc(-c2noc(-c3cc(-c4ccccc4)c(C(F)(F)F)s3)n2)c1`: the “uninfected host cell viability” value was 90.4 ± 2.4%. Regarding `CCN(CC)CCCCN1c2ccccc2Oc2ccc(Cl)cc21` [10-DEBC hydrochloride], the “uninfected host cell viability” value worked out at 80.7 ± 3.3%. As to `Cc1cccc(C(=O)NCN2CCN(c3ccccc3C#N)CC2)c1`, the “uninfected host cell viability” value was 88.3 ± 1.4%. In the case of `Fc1ccc([C@@H]2CCNC[C@H]2COc2ccc3c(c2)OCO3)cc1` [Paroxetine maleate], the “uninfected host cell viability” value turned out to be 78.9 ± 3.3%. For `COc1cc(OC)c(C(=O)CCCCN2CCC3(CC2)NC(=O)NC3=O)cc1NS(=O)(=O)c1ccc(C(F)(F)F)cc1`, the “uninfected host cell viability” value is 90 ± 3.1%. As for `COC(=O)C1=C(C)NC(C)=C(C(=O)OC(C)C)C1c1cccc2nonc12` (stereo unspecified) [Isradipine], the “uninfected host cell viability” value came to 104 ± 7.9%. As to `O=C1OC(OC(=O)c2cccnc2Nc2cccc(C(F)(F)F)c2)c2ccccc21` (stereo unspecified) [Talniflumate], the “uninfected host cell viability” value was 95.7 ± 11%. Then `CCC(=O)NC1CCc2cccc(OC)c2C1` (stereo unspecified), with 92.8 ± 1.7%; and `N[C@@H](Cc1cc(-c2ccc(Cl)cc2Cl)cc(CP(=O)(O)O)c1O)C(=O)O`, with 89.1 ± 2.9%. Regarding `NCCCCCCCCCCNS(=O)(=O)c1cccc2c(Cl)cccc12` [A-7 hydrochloride], the “uninfected host cell viability” value is 88.1 ± 2.6%.

Consider `C/C(=N\NC(=O)C1C(=O)NCC1c1ccccc1)c1cccc(Br)c1` (stereo unspecified), for which the “uninfected host cell viability” value was 88.1 ± 1.7%. Regarding `CN(C)CCCn1cc(C2=C(c3c[nH]c4ccccc34)C(=O)NC2=O)c2ccccc21`, the “uninfected host cell viability” value stood at 62.3 ± 1.5%. Then `COc1ccccc1N1CCN(CCCNc2cc(=O)n(C)c(=O)n2C)CC1` [Urapidil hydrochloride], with 89.4 ± 4.4%; and `CN/C(=N\c1ccc(C2=NNC(=O)CC2C)cc1)NC#N` (stereo unspecified) [Siguazodan], with 85.4 ± 1.3%; and `COCC(=O)O[C@]1(CCN(C)CCCc2nc3ccccc3[nH]2)CCc2cc(F)ccc2[C@@H]1C(C)C` [Mibefradil dihydrochloride], with 79.7 ± 4.6%. Turning to `Oc1cc2c(c(Cl)c1O)CCNCC2c1ccccc1` (stereo unspecified), the “uninfected host cell viability” value is 87.931 ± 0.028%. Regarding `COc1ccc2[nH]c(C(=O)c3ccccc3)cc2c1`, the “uninfected host cell viability” value worked out at 80.23 ± 0.49%. Regarding `CC(C)(CO)Cc1cc(C(C)(C)C)c(O)c(C(C)(C)C)c1`, the “uninfected host cell viability” value was 94.27 ± 0.8%.

In the case of `CCc1cc2c(c(CC)n1)CCC(=O)N2Cc1ccc(-c2ccccc2-c2nn[nH]n2)cc1` [ZD 7155 hydrochloride], the “uninfected host cell viability” value was 94.11 ± 0.49%. For the compound `O=[N+]([O-])c1cc2nc(O)c(O)nc2cc1[N+](=O)[O-]`, the “uninfected host cell viability” value was found to be 98.5 ± 2%. Take `CN(CCOc1ccc(C[C@H](Nc2ccccc2C(=O)c2ccccc2)C(=O)O)cc1)c1ccccn1`: the “uninfected host cell viability” value was found to be 109 ± 9%. For the compound `O=C(Nc1cccc2cccnc12)c1ccc(N2C(=O)[C@@H]3[C@H](C2=O)[C@@H]2C=C[C@H]3C2)cc1` [endo-IWR 1], the “uninfected host cell viability” value was found to be 69.36 ± 0.36%. Then `O=C1CCC(N2C(=O)c3ccccc3C2=O)C(=O)N1` (stereo unspecified) [Thalidomide], with 87.1 ± 5%; and `CCCCCCCCCCCC1=C(O)C(=O)C=C(O)C1=O` [Embelin], with 83.69 ± 0.49%; and `Nc1nc2c(ccc3ccccc32)s1`, with 77.6 ± 1.3%.

For `CCCCCCCCCCCCCCCC(=O)C(F)(F)F`, the “uninfected host cell viability” value was 91.66 ± 0.55%.

Consider `Cc1ccc(/C=C2\CNC/C(=C\c3ccc(C)cc3)C2=O)cc1`, for which the “uninfected host cell viability” value came to 34.4 ± 5.5%.

Take `CC(=O)N1CCN(C)CC1` [1-Acetyl-4-methylpiperazine hydrochloride]: the “uninfected host cell viability” value was 89.9 ± 1.1%. Then `CC1(C)CCC(C)(C)c2cc(C(=O)Nc3ccc(C(=O)O)cc3)ccc21`, with 81.8 ± 2.3%; and `Cc1ccc2c(=O)c3ccccc3n(CCCN)c2c1C`, with 55.7 ± 6.6%. As for `c1cc2c3c(c1)c1c(n3CCNC2)CCCC1` [WAY 629 hydrochloride], the “uninfected host cell viability” value was 89.6 ± 5.6%. Turning to `O=C(Cc1ccccc1)Nc1nc2ccc(Cl)cc2c2nc(-c3ccco3)nn12`, the “uninfected host cell viability” value amounted to 99.47 ± 0.4%.

Regarding `CC(C)NC[C@H](O)COc1cccc2[nH]ccc12` [(S)-(-)-Pindolol], the “uninfected host cell viability” value was determined as 81.7 ± 2.5%. For `CCc1cc(-c2n[nH]c(C)c2-c2ccc3c(c2)OCCO3)c(O)cc1O`, the “uninfected host cell viability” value came out at 79 ± 0.26%.

On to `COc1ccc(NC(=O)c2ccc(-c3ccc(-c4noc(C)n4)cc3C)cc2)cc1N1CCN(C)CC1`, for which the “uninfected host cell viability” value was 70.2 ± 7.3%. Then `COc1ccc(CC(=O)NC(/N=C(\NC#N)Nc2cccc3ncccc23)C(C)(C)C)cc1OC` (stereo unspecified), with 85.9 ± 2.2%; and `O=C(O)C1(C(=O)O)CCC1.[NH2-].[NH2-].[Pt+2]` [Carboplatin], with 89.5 ± 2.8%. Then `O=C(Nc1ccc([N+](=O)[O-])cc1O)Nc1ccccc1Br`, with 72.84 ± 0.22%; and `O=c1c(O)c(-c2ccc(O)c(O)c2)oc2cc(O)cc(O)c12` [Quercetin], with 88.7 ± 2.6%. Consider `COc1ccc2cccc(N3CCN(CCNC(=O)c4ccc(F)cc4)CC3)c2c1`, for which the “uninfected host cell viability” value turned out to be 82.7 ± 4%. `CN(C(=O)c1c(O)c2ccccc2n(C)c1=O)c1ccccc1` [Linomide]: the “uninfected host cell viability” value worked out at 90.1 ± 1.9%. With `CCN1CCC[C@H]1CNC(=O)c1c(O)c(Cl)cc(Cl)c1OC` [Raclopride], the “uninfected host cell viability” value was 86.3 ± 4.8%.

Regarding `O=C(O)c1cccnc1C(=O)O` [Quinolinic acid], the “uninfected host cell viability” value was 90.8 ± 6.9%. `CCCCC[C@H](O)/C=C/[C@H]1[C@H](O)CC(=O)[C@@H]1CCCCCCC(=O)O` [Alprostadil]: the “uninfected host cell viability” value was 91.7 ± 4.5%. Then `COc1cc2ncnc(Nc3ccc(F)c(Cl)c3)c2cc1OCCCN1CCOCC1` [Iressa], with 74 ± 2.6%. As to `[O-][S+](c1ccccc1)c1ccc2nnnn2n1` (stereo unspecified), the “uninfected host cell viability” value worked out at 97.9 ± 8%. Regarding `CN1CCC[C@@H]1CCO[C@](C)(c1ccccc1)c1ccc(Cl)cc1` [Clemastine fumarate], the “uninfected host cell viability” value turned out to be 94.8 ± 1.1%. Then `c1ccc2oc(C3=NCCN3)cc2c1` [2-BFI hydrochloride], with 84.5 ± 0.93%. `CC/C(=C(\c1ccccc1)c1ccc(OCCN(C)C)cc1)c1ccccc1` [Tamoxifen citrate]: the “uninfected host cell viability” value came out at 95.385 ± 0.09%. With `c1ccc(-c2n[nH]c3c2oc2ccccc23)cc1`, the “uninfected host cell viability” value came to 76.7 ± 0.88%. `Cc1ccccc1N=Nc1ccc(NC(=O)c2ccnn2C)c(C)c1`: the “uninfected host cell viability” value was found to be 85.4 ± 2%.

In the case of `O=c1[nH]nc(Sc2ncc([N+](=O)[O-])s2)n1-c1ccc2c(c1)OCCO2`, the “uninfected host cell viability” value worked out at 99.61 ± 0.28%. Then `c1ccc2nc(C3=NCCN3)cnc2c1` [BU 239 hydrochloride], with 90.45 ± 0.87%. Then `CCC(=O)NC[C@H](Cc1ccc(OCCc2nc(-c3ccccc3)oc2C)cc1)N/C(C)=C\C(=O)c1ccc(C(F)(F)F)cc1`, with 102 ± 1.4%; and `Brc1c(NC2=NCCN2)ccc2nccnc12` [UK 14,304 tartrate], with 95.97 ± 0.2%. Consider `Brc1c(NC2=NCCN2)ccc2nccnc12`, for which the “uninfected host cell viability” value turned out to be 87.1 ± 2.9%. Consider `N=C(N)N/N=C/c1c(Cl)cccc1Cl` [Guanabenz acetate], for which the “uninfected host cell viability” value was 86.3 ± 7%. Then `N[C@H](C(=O)O)[C@H](OCc1ccccc1)C(=O)O` (racemic), with 98.4 ± 2.4%; and `OC[C@H]1NC[C@@H](O)[C@@H](O)[C@@H]1O` [1-Deoxymannojirimycin hydrochloride], with 86.61 ± 0.073%. Then `O=C(O)c1cc(O)c2ccc(Cl)cc2n1` [7-Chlorokynurenic acid], with 86.7 ± 1.1%; and `O=C(O)CCC/C=C\C[C@@H]1CO[C@H](C(F)(F)F)O[C@@H]1c1ccccc1O`, with 93.4 ± 4.4%. On to `Cc1ccc2c(c1)C(=O)C1(O)CCN(c3ccccc3)C1=N2` (racemic) [(±)-Blebbistatin], for which the “uninfected host cell viability” value was found to be 90.9 ± 7.7%. As for `O=C1c2ccccc2S(=O)(=O)N1CCCCN1CCN(c2ncccn2)CC1` [Ipsapirone], the “uninfected host cell viability” value came out at 87.04 ± 0.35%.

As for `CC1=C(CC(=O)O)c2cc(F)ccc2/C1=C\c1ccc([S+](C)[O-])cc1` (stereo unspecified) [Sulindac], the “uninfected host cell viability” value turned out to be 85.4 ± 5%. Then `Cc1noc(NS(=O)(=O)c2ccc(N)cc2)c1C` [Sulfisoxazole], with 85.6 ± 1%.

As for `O=C1CC2(CCCC2)CC(=O)N1CCNCC1COc2ccccc2O1` (stereo unspecified), the “uninfected host cell viability” value is 85.64 ± 0.64%. Take `Cc1ccc(NC2=CC(=O)c3sc(C)nc3C2=O)cc1` [Ryuvidine]: the “uninfected host cell viability” value was found to be 16.8 ± 0.66%.

`COc1ccc2[nH]c([S+]([O-])Cc3ncc(C)c(OC)c3C)nc2c1` (stereo unspecified) [Omeprazole]: the “uninfected host cell viability” value stood at 85.1 ± 2.2%. Then `CC(=O)Nc1ccc(O)cc1` [Acetaminophen], with 88.7 ± 5.5%. Then `O=C1N(c2ccccc2)c2ccccc2C1(Cc1ccncc1)Cc1ccncc1` [Linopirdine dihydrochloride], with 91.77 ± 0.66%; and `CNCCC(Oc1ccccc1OC)c1ccccc1` (stereo unspecified) [Nisoxetine hydrochloride], with 101 ± 1.5%.

For the compound `Cn1cnnc1Sc1c([N+](=O)[O-])ncn1C`, the “uninfected host cell viability” value was 89.361 ± 0.008%. With `CCOC(=O)C1=C[C@]2(CC)CCCN3CCc4c(n1c1ccccc41)[C@@H]32` [Vinpocetine], the “uninfected host cell viability” value is 86.9 ± 1.2%. Then `c1ccc(N2CCN(Cc3nc4ccccc4[nH]3)CC2)nc1` [ABT 724 trihydrochloride], with 91.1 ± 2.7%; and `COC(=O)c1c(-c2cc(OC)c(OC)c(OC)c2)c2ccnc(OCc3ncccn3)c2c(=O)n1Cc1ccnc(C)c1` [T 0156 hydrochloride], with 97.36 ± 0.83%; and `CN1[C@@H](CC(=O)c2ccccc2)CCC[C@H]1C[C@H](O)c1ccccc1` [Lobeline hydrochloride], with 84.1 ± 3.4%. Then `CN1CC2c3ccccc3Oc3ccc(Cl)cc3C2C1` (stereo unspecified) [Asenapine maleate], with 91.6 ± 5.8%.

The values above are taken from the supplement of paper PMC4894684.
